From article PMC9911399, “Two distinct binding modes provide the RNA-binding protein RbFox with extraordinary sequence specificity”
Numbering of substitutions follows the chain as printed; changes in the protein carry UniProt numbers. Some of the results follow.

T1: RBFOX1 RRM RbFoxmut (Fox-RRM*) (Homo sapiens, UniProt Q9NWB1 109-208, R118D;E147R;N151S;E152T)
T1 sequence: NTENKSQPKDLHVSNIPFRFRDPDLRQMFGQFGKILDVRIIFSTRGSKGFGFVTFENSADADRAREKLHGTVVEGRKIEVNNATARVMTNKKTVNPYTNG

B1: UGUGCCA (DNA:RNA)
RNA: GGGAGACCGGAAUUCAGAUUGUCCUGUGCCAUUAAAUCCCGUCGUAGCCACCA
DNA 1: CAATCTGAATTCCGGTCTCCC
DNA 2: TGGTGGCTACGACGGGATT
B2: GCUUCUG (DNA:RNA)
RNA: B1 RNA with U25G, G26C, G28U, C30U, A31G
DNA 1: CAATCTGAATTCCGGTCTCCC
DNA 2: TGGTGGCTACGACGGGATT
B3: UUCGGUG (DNA:RNA)
RNA: B1 RNA with G26U, U27C, C29G, C30U, A31G
DNA 1: CAATCTGAATTCCGGTCTCCC
DNA 2: TGGTGGCTACGACGGGATT
B4: GGGGGUC (DNA:RNA)
RNA: B1 RNA with U25G, U27G, C29G, C30U, A31C
DNA 1: CAATCTGAATTCCGGTCTCCC
DNA 2: TGGTGGCTACGACGGGATT
B5: CCACUGG (DNA:RNA)
RNA: GGGAGACCGGAAUUCAGAUUGUCCCCACUGGUUAAAUCCCGUCGUAGCCACCA
DNA 1: CAATCTGAATTCCGGTCTCCC
DNA 2: TGGTGGCTACGACGGGATT
B6: CAGACGU (DNA:RNA)
RNA: B5 RNA with C26A, A27G, C28A, U29C, G31U
DNA 1: CAATCTGAATTCCGGTCTCCC
DNA 2: TGGTGGCTACGACGGGATT
B7: AAACAAU (DNA:RNA)
RNA: B5 RNA with C25A, C26A, U29A, G30A, G31U
DNA 1: CAATCTGAATTCCGGTCTCCC
DNA 2: TGGTGGCTACGACGGGATT
B8: AGAUCCC (DNA:RNA)
RNA: B1 RNA with U25A, U27A, G28U, A31C
DNA 1: CAATCTGAATTCCGGTCTCCC
DNA 2: TGGTGGCTACGACGGGATT
B9: CUGAGCU (DNA:RNA)
RNA: B5 RNA with C26U, A27G, C28A, U29G, G30C, G31U
DNA 1: CAATCTGAATTCCGGTCTCCC
DNA 2: TGGTGGCTACGACGGGATT

Molecular target: T1, RBFOX1 RRM RbFoxmut (Fox-RRM*)
Test: EMSA; HiTS-Eq, 1 nM pool, 10 min; buffer printed only for the single-RNA assays: 10 mM Tris pH 7.5, 150 mM NaCl, 3.4 mM EDTA, 0.001% NP-40, 30 C
Conditions: tags: His6 N-terminal (pET28a); label: 5' 32P
Outline: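 These values rest on relative association constants, computed from read-count changes of each RNA species versus the control reaction and normalised to the cognate motif. Reads came from free RNA recovered by 8% native PAGE after purified RbFox RRM (wild type or mutant) at increasing concentrations was equilibrated for 10 min in 50 µL with 1 nM of a 5′-radiolabelled pool with 7 randomized nucleotides and DNA-annealed flanks.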

Binder | binding signal
B1 | 0.101 KA relative to UGCAUGU
B2 | 0.0878 KA relative to UGCAUGU
B3 | 0.0922 KA relative to UGCAUGU
B4 | 0.201 KA relative to UGCAUGU
B5 | 0.0937 KA relative to UGCAUGU
B6 | 0.0577 KA relative to UGCAUGU
B7 | 0.045 KA relative to UGCAUGU
B8 | 0.046 KA relative to UGCAUGU
B9 | 0.0888 KA relative to UGCAUGU
